Data: article PMC6919601, “Identification of Plasmodium dipeptidyl aminopeptidase allosteric inhibitors by high throughput screening” (PLoS ONE, 2019)
The whole screen tested about 110,000 compounds, of which about 230 (0.21%) showed an effect of 50% or more. Some of the results follow.

The compounds below were run against DPAP1 (Plasmodium falciparum, UniProt Q8IIJ9) (assay: primary screen, percent inhibition; read by cleavage of a fluorogenic dipeptide substrate; higher = more effect of the substance).
Chain of DPAP1 (Q8IIJ9 whole entry, looked up): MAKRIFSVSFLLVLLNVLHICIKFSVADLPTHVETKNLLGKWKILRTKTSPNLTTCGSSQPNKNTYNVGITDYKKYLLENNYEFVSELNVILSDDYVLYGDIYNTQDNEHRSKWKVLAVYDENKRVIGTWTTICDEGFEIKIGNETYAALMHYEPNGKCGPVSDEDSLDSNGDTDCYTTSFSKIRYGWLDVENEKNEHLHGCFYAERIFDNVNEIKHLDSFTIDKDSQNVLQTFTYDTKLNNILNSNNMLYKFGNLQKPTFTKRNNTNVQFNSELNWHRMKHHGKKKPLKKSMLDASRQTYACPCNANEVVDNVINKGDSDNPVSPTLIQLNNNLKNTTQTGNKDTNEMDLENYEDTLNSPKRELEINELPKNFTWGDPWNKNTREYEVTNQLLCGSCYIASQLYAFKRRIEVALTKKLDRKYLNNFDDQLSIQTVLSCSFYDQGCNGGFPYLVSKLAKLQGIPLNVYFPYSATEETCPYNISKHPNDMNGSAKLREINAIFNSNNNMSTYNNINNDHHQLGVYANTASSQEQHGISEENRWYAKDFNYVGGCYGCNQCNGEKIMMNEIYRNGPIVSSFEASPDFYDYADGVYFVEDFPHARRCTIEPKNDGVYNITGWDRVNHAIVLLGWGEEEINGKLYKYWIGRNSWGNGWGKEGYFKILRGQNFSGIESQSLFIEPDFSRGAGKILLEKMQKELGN
Design: species or system P. falciparum D10 trophozoite lysates; single well
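Note: 30 min substrate incubation versus DMSO and 10 µM JCP410 controls.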

Structure (SMILES)	% Inhibition @ 10 uM
COc1cccc(Cn2c(C)c(CNC(C)CCc3ccccc3)c(C(=O)O)c2C)c1 (stereo not drawn)	16.3%
Cc1ccccc1S(=O)(=O)Cc1ccc(C(=O)NCCCN(C)C2CCCCC2)o1	-1.28%
Cc1nc2cc(S(=O)(=O)N3CCC(C(=O)NC4CCCCC4C)CC3)ccc2n1C1CCCC1 (stereo not drawn)	4.79%
Cc1cccnc1-c1ccc(C(=O)NC(Cc2c(F)cccc2F)C(=O)NCC#N)cc1 (stereo not drawn)	-6.56%
O=C(Cn1ccn(Cc2ccccc2)c(=O)c1=O)c1ccc(F)cc1	-4.42%
CC1CCN(c2ccc3nnc(CCC(=O)NC(C)CCc4ccco4)n3n2)CC1 (stereo not drawn)	-5.23%
CCN(CC)c1nc(SC)nc(Cl)c1Cc1ccc(OC)cc1	-3.75%
COc1ccccc1C(=O)Nc1cc(C)ccn1	-8.83%
Cc1ccc(/C=C2\CCC/C(=C\c3ccc(C)o3)C2=O)o1	0.287%
CC1CCCCN1CCCNC(=O)c1nc(-c2ccc(Cl)cc2)n2c1CCCCC2 (stereo not drawn)	1.19%
CCOC(=O)c1[nH]c2ccccc2c1NC(=O)Cc1cccs1	-2.74%
CCC[C@H](NC(=O)C1(NC(=O)c2ccc(OC(F)(F)F)cc2)CCCCC1)C(=O)c1nnc(COC)o1	-3.04%
O=C(CCn1cccn1)NCc1cccs1	-0.656%
N#CCNC(=O)[C@@H](Cc1ccc(C(=O)c2ccccc2)cc1)NC(=O)OCc1ccccc1	0.079%
COc1ccc(C2C(C#N)=C(N)OC3=C2C(=O)CCC3)c(OC)c1 (stereo not drawn)	-5.79%
COc1ccc(Cl)cc1NC(=O)NC1CCCCC1	-4.01%
Cc1cccc(CCNC(=O)C2c3ccccc3C(=O)N3CCc4ccccc4C23)c1 (stereo not drawn)	-1.62%
CCC(C)N(CCNC(=O)Cn1ncc2c1-c1cc(C)ccc1CC2)Cc1ccco1 (stereo not drawn)	-1.51%
CC(C)OCc1cc(CN2CCOCC2)c(O)c2ncccc12	1.12%
Cc1ccc(S(=O)(=O)C2C(=O)N(C)C3(C)CC2c2cc(Br)ccc2O3)cc1 (stereo not drawn)	-4.24%
CC(C)(O)C(=O)/C=C/c1ccc2c(c1)OCO2	-6.44%
Cc1ccsc1-c1nc(CSCC(=O)N2CCC3(CC2)OCCO3)c(C)o1	0.689%
CCN(CC)CCN(CC)CCC1=C(C)CCCC1(C)C	1.9%
CN1CCCCc2c1nc1ccccc1c2N	-2.42%
CC1(C)CC(=O)C(/C=N/CCCO)=C(O)C1	1.25%
COc1ccc(N2CCN(C(=O)c3csc(C)c3C)CC2)cc1	1.85%
O=C(c1ccccc1)N1CCN(C(=O)c2cccnc2)CC1	0.565%
